We go through 26 molecules from PubChem BioAssay AID1508624 (National Center for Advancing Translational Sciences (NCATS), 2021).

Hit rate of the full screen: of about 48,000 compounds, about 120 (0.25%) were called active. Another 4% or so got no clear call; they are omitted. Calls follow the shape of the dose curve; as a rule, active = well fitted activation curve with a large enough effect; inconclusive = small, poorly fitted or top-dose-only effect, or another doubt; inactive = no such curve, though single readings can be large or run the other way. Some of the results follow.

The nature of this assay: Primary qHTS for Identification of Small Molecule Activators of Huntingtin-Antisense Promoter Activity. Also: nearly all actives have a fitted effect of over 55% in size. The conditions noted are these: HEK293 HTT-AS promoter firefly luciferase reporter, 24 h; series mostly up to 57.5 µM; activity change, positive = activation: at the top concentration. A digest of the protocol: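 HEK293 Fluc reporter, 2,500 cells/well, 24 h pre-culture; cpds up to 57.5 uM final, 24 h 37 degrees C; Dual-Glo, 10 min RT; normalized vehicle = 0%, zero RLU = -100%.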
In general terms: qHTS replaces the single test concentration by a dilution series.
With `CN(CCCN1c2ccccc2CCc2ccccc21)CC(=O)c1ccc(Cl)cc1`, the “activity change, positive = activation” value was inactive: 2.58%.

Regarding `CCc1nn(CC(=O)NCCc2ccc(OC)c(OC)c2)c(=O)c2cc3occc3n12`, the “activity change, positive = activation” value was inactive: -13.5%. In the case of `CCOC(=O)c1ccc(NC(=O)CSc2nc(-c3ccc(F)cc3)cc(C(F)(F)F)c2C#N)cc1`, the “activity change, positive = activation” value is inactive: -4.26%. `COc1ccccc1NC(=O)c1ccc(-c2nc(COc3ccc(C)cc3)c(C)o2)cc1`: the “activity change, positive = activation” value is inactive: -23.1%. Take `Cc1ccc(NC(=O)Nc2c(C)n(C)n(-c3ccccc3)c2=O)c(Cl)c1`: the “activity change, positive = activation” value was inactive: -5.73%.

As for `CCOc1ccc(NC(=O)C2=C(C)C(=O)OC23CCC(C)CC3)cc1` (stereo unspecified), the “activity change, positive = activation” value is inactive: -25.6%. With `CC(C)CCNC(=O)c1cc(-c2ccc(Br)s2)nc2ccccc12` the figure was inactive: -1.35%; with `COc1ccc(-c2cc(C)no2)cc1S(=O)(=O)N1CCCC(C)C1` (stereo unspecified), inactive: -22.8%; with `Cc1cccc(NC(=O)c2ccc3[nH]c(C)cc(=O)c3c2)c1`, inactive: 10.1%. In the case of `Cn1c(=O)[nH]c(=O)c2c1nc(CN1CCN(c3ccccc3)CC1)n2Cc1c(F)cccc1Cl` it was inactive: -18.3%; in that of `CCC(=O)N1CCc2cc(S(=O)(=O)NC(Cc3ccccc3)C(=O)NCc3ccccc3OC)ccc21` (stereo unspecified), inactive: -2.1%; in that of `CC(C)(C)c1ccc(C(=O)Nc2ccc(NC(=O)c3ccc(Cl)c(Cl)c3)cc2)cc1`, inactive: -7.88%. For the molecule `COc1cccc(NC(=O)Nc2ccc3snnc3c2)c1`, the “activity change, positive = activation” value was inactive: 2.41%. In the case of `CCC(Oc1ccccc1)C(=O)Nc1cc(-c2ccccc2F)nn1-c1ccccc1` (stereo unspecified), the “activity change, positive = activation” value was inactive: -16.7%.

On to `CCN1CCN(c2nc3c(S(=O)(=O)c4ccc(C)cc4)nnn3c3ccsc23)CC1`, for which the “activity change, positive = activation” value is inactive: -17.9%. With `CCN(CC)S(=O)(=O)c1ccc2c(c1)N(CC(=O)NCCc1ccccc1)C(=O)CO2`, the “activity change, positive = activation” value was inactive: -10.9%. Take `COc1cc(NC(=O)C(CC(C)C)N2Cc3ccccc3C2=O)cc(OC)c1` (stereo unspecified): the “activity change, positive = activation” value is inactive: -9.95%.

On to `CCOc1ccc(NC(=O)CSc2nc3ccsc3c(=O)n2CC)cc1`, for which the “activity change, positive = activation” value is inactive: -29.4%. Consider `CCN(CC)C(=O)c1ccc2c(c1)N(Cc1ccccc1F)C(=O)c1ccccc1S2=O` (stereo unspecified), for which the “activity change, positive = activation” value was inactive: -18.1%. As for `Cc1ccc(NC(=O)Cn2c(=O)nc(-c3ccccc3)c3ccccc32)cc1`, the “activity change, positive = activation” value was inactive: -5.47%. Regarding `CCCCNC(=O)CCn1nc(-c2ccc(Cl)cc2)c2ccccc2c1=O`, the activity change, positive = activation was inactive: 11.6% [at 11.5 µM, percent change from vehicle, -100% = no light]. With `CCCCOc1ccc(CNC(=O)c2cnc3sc(N4CCCCCC4)nn3c2=O)cc1`, the “activity change, positive = activation” value is inactive: -3.21%. Turning to `Cc1c(C(=O)NCc2cccc(F)c2)oc2c1-c1[nH]ncc1CC2`, the “activity change, positive = activation” value is inactive: -12.6%. Take `Cc1cccc(C(=O)n2nc(-c3cccnc3)nc2NCc2ccc(F)cc2)c1`: the “activity change, positive = activation” value is inactive: -1.35%. Take `CC(=O)OCCN1C(=O)c2c(C)nc3ccc(S(=O)(=O)N4CCOCC4)cc3c2C1=O`: the “activity change, positive = activation” value was inactive: -7.49%. On to `Cc1ccc(Nc2nc3ccccc3nc2-n2nc(C)cc2C)c(Cl)c1`, for which the “activity change, positive = activation” value is inactive: -9.17%.
